# Sequences with one replicate were seen in a single cluster, so their values are uncertain.
# System: ATP
# Assay: switch fluorescence ratio, 500 uM ATP over buffer (Cy3 cluster intensity, sum of 5 cycles each) (fold (ratio)); higher = stronger signal-on switching upon ATP binding; sequences stand for … in TCGTCGGCAGCGTCAGATGTGTATAAGAGACAGTTTTTTTTTTTTTTTTTTTTTTTTT…TC
# Conditions: aptamer strand: ATP DNA aptamer (quencher-CACCTGGGGGAGTATTGCGGAGGAAGG + anchor), 100 nM annealed; ATP concentration: 500 uM; one replicate
# How it was run: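 Values give the fluorescence ratio for each switch-domain sequence, averaged from per-cluster ratios of summed target-cycle to summed buffer-cycle Cy3 intensity. The Cy3-labelled switching-strand clusters sat on a modified Illumina MiSeq flow-cell, were annealed to 100 nM quencher-labelled ATP aptamer, and were imaged in selection buffer, then after 15 min with 500 uM ATP at 22 °C. Five cycles ran with NaOH stripping and re-annealing between them, and clusters outside 100-1000 RFU were excluded.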
# 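Note: ATP exposure 15 min at 22 °C before imaging.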
row,Sequence,switch fluorescence ratio
1,GCGCTGTAGT,1.01
2,GCGCTGTTAC,3.98
3,GCGCTTACCA,1.02
4,GCGCTTTGCT,1.05
5,GCGGATGGCT,0.99
6,GCGGATTTGG,0.992
7,GCGGCACGAG,1.02
8,GCGGCGCGAC,1.07
9,GCGGCTGACA,1.03
10,GCGGCTTAGG,1.02
11,GCGGCTTCA,1.02
12,GCGGCTTGGT,1
13,GCGGGAAGGT,0.95
14,GCGGGAGGAC,1.04
15,GCGGGCCCGG,1
16,GCGGGCGCTA,0.968
17,GCGGGGATAA,1.01
18,GCGGGGATAT,1.03
19,GCGGGGCCTC,1.08
20,GCGGGGCGAC,0.987
21,GCGGGGCGCC,1.02
22,GCGGGGTAGA,1.05
23,GCGGTCATGC,0.98
24,GCGGTCTGTG,1.01
25,GCGGTGGGCG,1.04

row,Sequence,switch fluorescence ratio
1,GCGGTGGTTC,1.03
2,GCGGTGTGTG,1
3,GCGGTTAATA,1
4,GCGGTTATGA,1.03
5,GCGGTTTTAG,1.04
6,GCGTAATCCA,1.03
7,GCGTAATGCG,1.05
8,GCGTACATGA,0.991
9,GCGTACTCTT,1.08
10,GCGTAGCGAC,1.28
11,GCGTAGGCAA,1.01
12,GCGTAGGGGA,0.992
13,GCGTAGTTGT,0.971
14,GCGTATTAGA,1.03
15,GCGTATTCCA,0.976
16,GCGTCAATCG,1.02
17,GCGTCACACG,0.988
18,GCGTCGATCG,0.998
19,GCGTCGCTGT,1.04
20,GCGTGATTGA,1
21,GCGTGGCCCG,1.02
22,GCGTGTAAAT,1.04
23,GCGTTAGTGT,0.944
24,GCGTTATAAT,0.999
25,GCGTTATGAC,1.06

row,Sequence,switch fluorescence ratio
1,GCGTTCACGT,0.972
2,GCGTTCAGGG,0.989
3,GCGTTCGCCC,0.942
4,GCGTTCGTGT,1
5,GCGTTGGGCC,1.05
6,GCGTTGGTAT,0.998
7,GCGTTTATAG,0.995
8,GCTAAAGCAG,0.991
9,GCTAACTCGT,1.04
10,GCTAATCGCA,1.02
11,GCTAATGG,1.5
12,GCTACACGAT,1.19
13,GCTACAGATG,1.03
14,GCTACCCCGG,4.96
15,GCTACCTGTG,1.02
16,GCTACTATGT,0.986
17,GCTACTCGTA,1.03
18,GCTACTCTTG,1.08
19,GCTAGAACAT,1.04
20,GCTAGACAAC,1.06
21,GCTAGCCG,1.04
22,GCTAGCGATG,0.989
23,GCTAGCGGAG,1.02
24,GCTAGGATCA,0.987
25,GCTAGTAGGA,1

row,Sequence,switch fluorescence ratio
1,GCTATACTGG,1.24
2,GCTATATACT,1.21
3,GCTATCGGTC,1.01
4,GCTATCTGA,1
5,GCTATGAGTG,1.02
6,GCTATTGACT,1.03
7,GCTATTGGAC,1.01
8,GCTCACGGGG,1.03
9,GCTCACGTTA,1.31
10,GCTCACTACA,1.08
11,GCTCACTAGA,1.05
12,GCTCATGCGG,0.989
13,GCTCCCATTA,2.27
14,GCTCCCTTGA,1.14
15,GCTCCGGCTA,2.97
16,GCTCCGGGCT,1
17,GCTCGAATCA,0.968
18,GCTCGACTAC,1.3
19,GCTCGCCTGT,1.03
20,GCTCGGGATC,1.09
21,GCTCTAACAT,1.05
22,GCTCTAGGGG,1.05
23,GCTCTCCCC,2.41
24,GCTCTCCGTC,1.32
25,GCTCTCCTGG,1.32

row,Sequence,switch fluorescence ratio
1,GCTCTGATTG,0.994
2,GCTCTTTACT,1.05
3,GCTGACGCGG,1
4,GCTGACTGTT,1.01
5,GCTGAGCCTG,0.945
6,GCTGAGTAGT,1
7,GCTGATAGCC,0.979
8,GCTGATTCGT,0.957
9,GCTGCAAATT,1
10,GCTGCAACAG,1.1
11,GCTGCGGTTC,1.12
12,GCTGGAAGAG,0.992
13,GCTGGATTCC,1.02
14,GCTGGATTTG,1
15,GCTGGCCCGC,0.955
16,GCTGGCGTAG,0.972
17,GCTGGGGAGC,0.968
18,GCTGGTAGTC,1.04
19,GCTGGTGTCC,1.01
20,GCTGGTGTTC,1.01
21,GCTGTAACCG,0.985
22,GCTGTACCTT,1.09
23,GCTGTAGGG,1
24,GCTGTATCAG,1.01
25,GCTGTATCGC,0.921

row,Sequence,switch fluorescence ratio
1,GCTGTCTTGC,1.03
2,GCTGTGAGG,1.04
3,GCTGTGTAGT,0.993
4,GCTGTTTAAT,0.996
5,GCTGTTTATG,0.985
6,GCTTAAAAGA,0.981
7,GCTTAGATAA,1.01
8,GCTTAGTCCA,1.03
9,GCTTAGTGCT,0.991
10,GCTTATACAT,1.02
11,GCTTATCTTG,0.989
12,GCTTATTCTC,0.956
13,GCTTATTGCC,1.03
14,GCTTCGGCCC,1.05
15,GCTTCTAAAT,0.991
16,GCTTCTCTAA,1.01
17,GCTTCTTCT,0.998
18,GCTTGAACAA,0.993
19,GCTTGACGGA,0.987
20,GCTTGAGGAC,0.997
21,GCTTGCTTCT,0.995
22,GCTTGCTTGT,1.03
23,GCTTTAGACT,1.01
24,GCTTTAGATA,0.967
25,GCTTTCACGT,0.976

row,Sequence,switch fluorescence ratio
1,GCTTTCAGTG,0.975
2,GCTTTCGGGG,0.964
3,GCTTTGCTGA,0.987
4,GCTTTGGGA,1.04
5,GCTTTTGCGT,0.981
6,GCTTTTTTGC,0.965
7,GGAAAATCT,0.98
8,GGAAACTCCA,1.03
9,GGAAAGCGTT,1.03
10,GGAAATCGAC,1.17
11,GGAACCTAG,0.994
12,GGAACGCATG,1.05
13,GGAACTAAAT,1.01
14,GGAACTGGTG,1.08
15,GGAAGACAGC,0.977
16,GGAAGAGCTC,0.985
17,GGAAGCCTGT,1.03
18,GGAAGGAAGC,0.992
19,GGAAGGACGG,0.999
20,GGAAGTAGAA,0.989
21,GGAATATGAG,1.08
22,GGAATATTTC,0.977
23,GGAATCAGGC,0.977
24,GGAATCGCCG,0.998
25,GGAATGAGCG,0.976

row,Sequence,switch fluorescence ratio
1,GGAATGTGTA,0.96
2,GGAATTCATG,0.992
3,GGAATTTAGT,1.03
4,GGACAATTTA,1.02
5,GGACACGTTT,0.996
6,GGACAGGCCT,1.09
7,GGACAGTCTT,1.02
8,GGACATAAGC,0.979
9,GGACATCAGG,1
10,GGACATCGTG,1.02
11,GGACATTTGA,1.02
12,GGACCAAGGA,1.04
13,GGACCACTGA,1.08
14,GGACCAGTGA,1.05
15,GGACCATTAA,0.979
16,GGACCCCGGC,1.01
17,GGACCCTAGA,1.01
18,GGACCGGGCT,0.991
19,GGACCTAGCT,1.03
20,GGACGAATAT,1.01
21,GGACGCGGC,1.02
22,GGACGGTAAC,1.22
23,GGACGTAATC,4.31
24,GGACGTAGCC,1.06
25,GGACGTATGT,1.05
